Measurements from PubChem BioAssay AID651820 (National Center for Advancing Translational Sciences (NCATS), 2012).
Among all 340,000 compounds or so, about 12,000 (3.5%) were called active. Inconclusive results, whose numbers are uncertain, are shown with a selection of clear calls. The call rests on the fitted dose curve; in most records, active means well fitted inhibition curve with a large enough effect; inconclusive means small, poorly fitted or top-dose-only effect, or another doubt; inactive means no such curve, though single readings can be large or run the other way. No potency is given beside an inconclusive call; the fits are too rough.

assay: qHTS Assay for Inhibitors of Hepatitis C Virus (HCV); details: Huh7.5.1 HCVcc-Cre (HCVcc is cell-culture hepatitis C virus) infection, luciferase reporter, 44 h; activity change, negative = inhibition: at 41.8 µM (top of the series)
Summary of the method: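 A cell-based infection assay in which seeded cells (1,000 per well) receive test compound after 4 h, are inoculated with HCVcc-Cre at approximately 0.5 moi, and are incubated 44 h before luminescence detection.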
On the % scale 0 is the no-effect control and ±100 the full control effect; potency means the concentration at half of the fitted maximal effect; tags describe the fitted curve by direction and shape.

Row | SMILES | Potency | activity change, negative = inhibition
1 | CCC(=O)NC(c1cccs1)c1ccc2cccnc2c1O (configuration not stated) | active: 3.55 µM | 
2 | O=C(COC(=O)Cn1cnc2ccccc21)Nc1ccc(F)c(F)c1 |  | inactive: 14.2%
3 | Cc1ccc(COc2cccc3c2CCN(Cc2ccc(F)cc2)C3=O)cc1 | inconclusive [inhibitor, partial curve, poor fit] | 
4 | O=C(COc1ccc(Cl)cc1[N+](=O)[O-])NC1CCCCC1 | inconclusive [inhibitor, partial curve] | 
5 | CCC(=O)Nc1ccc(Nc2nc(C)c([N+](=O)[O-])c(Nc3ccc(NC(=O)CC)cc3)n2)cc1 | active: 10 µM | 
6 | COc1ccc(-c2onc(C)c2-c2cscn2)c(O)c1 |  | inactive: 12.3%
7 | Cc1cccc(C(=O)OCC(=O)c2ccc3c(c2)OCCO3)c1O | inconclusive [inhibitor, single point] | 
8 | CN(C)S(=O)(=O)c1ccc(N2CCCC2)c(C(=O)NCC(=O)Nc2ccc(F)c(F)c2)c1 | inconclusive [inhibitor, single point] | 
9 | COc1cccc(N2CCN(C(=O)c3ccc4ccccc4c3)CC2)c1 | inconclusive [inhibitor, partial curve, poor fit] | 
10 | O=C(CCc1ccccc1)Nc1cccc(S(=O)(=O)N2CCOCC2)c1 | inconclusive [inhibitor, single point] | 
11 | Cc1ccc(S(=O)(=O)NC2=C(N3CCN(c4ccccc4F)CC3)C(=O)c3ccccc3C2=O)cc1 | inconclusive [inhibitor, single point] | 
12 | COc1cc2c(cc1OC)C(/C=C/c1ccco1)=NCC2 | inconclusive [inhibitor, single point] | 
13 | CN(C)C=NC(=O)c1[nH]c2ccc(Cl)cc2c1-c1ccccc1 | inconclusive [inhibitor, partial curve] | 
14 | CN(C)CC1CCC/C(=C\c2ccc(OC(=O)/C=C/c3ccc(Cl)c(Cl)c3)cc2)C1=O (configuration not stated) | inconclusive [inhibitor, partial curve] | 
15 | CCOc1cc(C(=O)Nc2cc(C)on2)cc(OCC)c1OCC | inconclusive [inhibitor, partial curve] | 
16 | COc1nc(NCCc2ccc(OC)c(OC)c2)nc(Nc2ccccc2)n1 | inconclusive [inhibitor, single point] | 
17 | CNC(=S)N1N=C(c2ccc(C)cc2)CC1c1ccc(Br)cc1 (configuration not stated) | inconclusive [inhibitor, partial curve] | 
18 | COc1ccccc1C(=O)NCC(=O)N1CC=C(c2ccccc2)CC1 | inconclusive [inhibitor, single point] | 
19 | O=C(NCc1ccccn1)c1cc(-c2ccncc2)nc2ccccc12 | inconclusive [inhibitor, partial curve] | 
20 | CC(Oc1cccc(Cl)c1)C(=O)Nc1ccc(S(=O)(=O)NC2=NCCCCC2)cc1 (configuration not stated) | inconclusive [inhibitor, single point] | 
21 | COc1cccc(OC)c1C(=O)NC(=S)Nc1ccc2oc(=O)ccc2c1 |  | inactive: 8.57%

Row | SMILES | Potency | activity change, negative = inhibition
22 | CCC(=O)Nc1ccc(NC(=O)CSc2nc3cc4c(cc3cc2C)CCC4)cc1 | inconclusive [inhibitor, partial curve] | 
23 | Cc1ccc(CNc2cc(-c3nn4c(C)nnc4s3)ccc2C)s1 | inconclusive [inhibitor, partial curve, poor fit] | 
24 | COC(=O)[C@H](CCSC)NC(=O)[C@@H](Cc1cnc[nH]1)NC(=O)OCc1ccccc1 |  | inactive: 11.1%
25 | Cc1ccc(NC(=O)NCCN2C(=O)C3C4C=CC(C4)C3C2=O)cc1 (configuration not stated) |  | inactive: 3.11%
26 | Cc1cc(C)c(/C([O-])=C(/C(=S)Nc2ccc(SC(F)F)cc2)[n+]2ccccc2)cc1C | inconclusive [inhibitor, single point] | 
27 | C=COc1ccc(N2C(=O)c3ccccc3OC2C)cc1 (configuration not stated) | inconclusive [inhibitor, single point] | 
28 | COc1ccc(C(=O)/C=C2\Sc3ccccc3N2C)cc1 | active: 10 µM | 
29 | CCCC(=O)Nc1cccc(NC(=O)c2ccc3c(c2)OCO3)c1 | inconclusive [inhibitor, single point] | 
30 | Cc1ccc2occ(CN3CC4CC(C3)c3cccc(=O)n3C4)c(=O)c2c1 (configuration not stated) |  | inactive: -3.46%
31 | Cc1nc2cc3ccccc3cc2n1C | inconclusive [inhibitor, single point] | 
32 | Cc1cc(C)nc(N2CCCC(C(=O)NC(C)C)C2)n1 (configuration not stated) |  | inactive: 0.373%
33 | Cc1ccc(O)c(C(=O)c2cnc3c(c2)CN(CCC(C)C)C(=O)N3)c1 | inconclusive [inhibitor, partial curve] | 
34 | CSc1ccc(C(=O)C2CCCN(C(=O)c3nonc3C)C2)cc1 (configuration not stated) | inconclusive [inhibitor, single point] | 
35 | CCN(c1ccccc1)S(=O)(=O)c1ccc(OC)c(NC(=O)c2ccccc2OC)c1 | inconclusive [inhibitor, partial curve] | 
36 | O=C(Nc1nnc(C2COc3ccccc3O2)o1)c1ccc(F)cc1 (configuration not stated) | inconclusive [inhibitor, single point] | 
37 | CC(C)(C)OC(=O)NCCCC[C@H](NC(=O)c1nc[nH]c1C(=O)N1CCN(c2ccccc2)CC1)C(=O)OC(C)(C)C | inconclusive [inhibitor, single point] | 
38 | Cc1ccc(NC(=O)c2ccc3c(c2)OCCO3)cc1C | inconclusive [inhibitor, single point] | 
39 | Cc1cc2nc(-c3ccc(SCC(=O)N4CCOCC4)nc3)[nH]c2cc1C | inconclusive [inhibitor, single point] | 
40 | O=C(Nc1ccc(Cl)c(C(F)(F)F)c1)NC1CC2CCCC(C1)N2Cc1ccccc1 (configuration not stated) | active: 25.1 µM | 
41 | CCCCCOc1ccc(N2C(=O)CC(N(O)c3ccccc3)C2=O)cc1 (configuration not stated) | inconclusive [inhibitor, single point] | 
42 | CCCCCCc1cc2cc(-c3nnc(-c4cc(OC)c(OC)c(OC)c4)o3)c(=O)oc2cc1O | inconclusive [inhibitor, single point] | 
